# Data from ChEMBL document CHEMBL4888484, “Replenishing the malaria drug discovery pipeline: Screening and hit evaluation of the MMV Hit Generation Library 1 (HGL1) against asexual blood stage Plasmodium falciparum ,using a nano luciferase reporter read-out” (2022).
# The campaign covered roughly 150,000 compounds. About 540 (0.36%) showed an effect of 50% or more. Some of the results follow.
# Tested on: Plasmodium falciparum
# Test: Primary screen in NF54 nanoGlo assay, in single point, at 2uM, 72h; a lower Z score goes with more inhibition
# Format: functional, Erythrocyte
# Settings: timepoint 72 hour
SMILES,% Inhibition [%],Z score
COCc1noc(CNC(=O)C2(COC)CCC2)n1,0,-0.07
CN(C)[C@H]1CCCCN(Cc2cc3c(cc2Cl)OCO3)C1,-12,2.14
Cc1noc(C)c1CC(=O)Nc1cccc(Oc2cccnn2)c1,-13,1.83
Cc1nc(-c2cccs2)sc1C(=O)Nc1ccc2c(c1)OCO2,-2,0.35
O=C(C#Cc1ccccc1)N1CCC(C2(Cc3ccc(F)cc3)NC(=O)N(C3CCOC3)C2=O)CC1 (stereo not given),6,-0.77
COCCN(C)CC(=O)N1CCC2(CCCCCC2)C1,-17,2.39
Cc1csc(CN(C)CCCn2cccn2)n1,3,-0.47
O=C(NCc1ccc2c(c1)OCO2)N1CCOCC1CC(O)c1ccccc1 (stereo not given),-12,1.16
CC(NC(=O)C1CC(=O)N(Cc2cccc(C(F)(F)F)c2)C1)c1nnc2n1CCC2 (stereo not given),-7,0.64
Cc1ccc(OC2CCN(C(=O)c3ccccc3C(F)(F)F)CC2)nn1,-11,2.14
CN(CC(F)(F)F)C(=O)CNC(=O)c1cc(F)cc(Cl)c1O,39,-4.36
O=C(Nc1nc(Cc2ccccc2)ns1)c1cc(F)c(O)c(F)c1,7,-1.28
COc1ccccc1CS(=O)(=O)CC(=O)NC1CCCCCCC1,32,-3.26
CCN1CCCN(c2ccc(C(=O)Nc3ccccc3)nn2)CC1,5,-0.68
COc1cccc(-c2ncc[nH]2)c1OCCN1CCOCC1,2,-0.25
COCCC1(c2noc(-c3cccnc3)n2)CCN(CCCc2ccccc2)CC1,11,-1.4
Cc1cccc(C(=O)N(Cc2ccccn2)c2ccc(Cl)cc2)n1,-12,1.36
Cn1cc(-c2nc([C@@H]3CCCCCN3C(=O)c3cccc(C#N)c3)no2)cn1,-14,1.44
COc1ccccc1N1CCN(C(=O)C2CCN(S(=O)(=O)c3ccc(-c4ccn[nH]4)o3)CC2)CC1,-10,1.48
CCc1ccccc1NC(=O)c1cccnc1-c1ccc(C)s1,1,-0.18
CC(C)c1cc(C(=O)N2C[C@@H](CN3CCCN(C)CC3)[C@@H](CO)C2)cs1,-14,1.32
COc1ccc(N2C(=O)[C@H](CC(=O)N3CCc4cc(OC)c(OC)cc4C3)N=C2O)cc1,-7,0.95

SMILES,% Inhibition [%],Z score
CC(C)N(CC1CN(Cc2cccc(F)c2)CC1c1ccc(F)cc1)C(=O)c1ccc(F)cc1 (stereo not given),4,-0.62
C=C(C)COc1c(CN[C@@H](CO)c2ccccc2)cccc1OC,4,-0.67
O=C(CCC1CCCC1)N1CCC(n2cnc3cc(C(F)(F)F)ccc32)CC1,-9,1.02
Cc1cnn(CC2CCCN2C(C(N)=O)c2ccccc2)c1 (stereo not given),-1,0.23
O=S(=O)(Cc1ccccc1)N1CCC(c2noc(COCc3ccccc3)n2)CC1,-5,0.69
O=C1NCCN(Cc2nc3c(s2)CCCC3)C12CCCC2,-14,2.05
Cc1ccc(Cn2cccc2C(=O)C(=O)N(C)c2ccc(C)cc2)cc1,-6,0.59
COc1ccc(S(=O)(=O)NC2CCOC(C(C)C)C2)cc1Cl (stereo not given),-1,0.08
CC(C)Cc1nc(CCc2ccncc2)n(CC(C)(C)O)n1,-8,1.48
C[C@@H](CN(C)c1ccnc(N(C)C)n1)C(=O)O,-9,1.17
Cc1n[nH]cc1CN[C@@H](COc1ccccc1)c1ccccc1,2,-0.26
CCc1nn(C)cc1CN1CCOc2ccccc21,0,-0.03
O=C(NCCCc1ccccc1)c1ccc(CN2C(=O)NC3(CCOCC3)C2=O)cc1,-25,2.85
Cc1nnc(N2CCC(C(=O)NCc3cccc(F)c3)CC2)c2c(C)n(Cc3ccccc3)c(C)c12,0,-0.01
FC(F)(F)c1cnc(N2CC[C@H](N3CCOCC3)C2)s1,-2,0.23
CCOc1c(CNCCN(C)C)cccc1OC,6,-0.76
CCN(CC)CCS(=O)(=O)Nc1nc(OC)cc(OC)n1,-3,0.46
Cn1ccnc1C(=O)[C@@H](C#N)C(=O)c1cc2cc(F)ccc2o1,-5,0.58
N#Cc1cccc(C(=O)Nc2nc(-c3ccc4c(c3)CCCC4)cs2)c1,3,-0.27
OCC1(COc2ccccc2-c2nncn2-c2ccccc2)COC1,0,0.06
N#Cc1nccnc1NC1CCOC1c1ccccc1 (stereo not given),-7,1.06
OCC[C@H]1CN(Cc2nc3c(s2)CCCC3)CCN1Cc1cccs1,11,-1.4

SMILES,% Inhibition [%],Z score
O=C1OC2(CCN(CC[C@H]3CCOC3)CC2)CN1CCc1ccccc1,-16,3.11
CC1=NO[C@](C)(C(=O)N2CCN(C(=O)c3ccccc3)CC2)C1,-8,1.28
COc1ccc(CN(C(=O)Cc2c(C)n[nH]c2C)C2CCCC2)c(OC)c1,-4,0.73
O=C(NC[C@]1(CO)COCCN1Cc1ccccc1)c1nccc2ccsc12,-4,0.41
CC(C)(C)NC(=O)C[C@H]1COCCN1S(=O)(=O)N1CCc2ccccc2C1,-3,0.54
Cc1[nH]c(=O)c(C#N)c(C)c1CCC(=O)NS(=O)(=O)C1CCCCC1,-9,1.43
Nc1nc2c(c(N[C@H]3Cc4ccccc4[C@@H]3N)n1)CCCC2,9,-1.81
O=C(c1ccccc1)c1c(Cl)cccc1NS(=O)(=O)Cc1ccccc1,0,-0.05
O=C(NC1CC1c1cccc(F)c1)c1cccn1C1CC1 (stereo not given),-2,0.32
Cc1nc(Cn2cccc2C(=O)Nc2cccnc2)no1,-17,2.41
Cc1ccc(N2CCC(c3nnc(CN4CCN(C)CC4)n3C)CC2)nn1,-14,2.6
Cn1cccc1C(=O)NCCCn1cn[nH]c1=O,16,-2.1
CN1CCCC[C@@H]1CNC(=O)Nc1cc(F)cc(Cl)c1,-11,1.89
Cc1ccc(C)c(S(=O)(=O)N2CCC(N3CCN(Cc4ccc(F)cc4)C(=O)C3=O)CC2)c1,-4,0.56
CCCN(CC1CC1)C(=O)c1nn(CC2CC2)c2c1COCC2,-1,0.09
Cn1c(CN2CC(CO)(c3ccccc3)C2)nc2ccc(Cl)cc21,6,-1.17
C[C@H]1CCCN(CN2C(=O)C3(OCCO3)c3ccccc32)C1,-13,2.18
Cc1noc(C)c1Cc1n[nH]c(=O)n1CCc1ccccc1F,-13,1.45
Cc1cnc(-c2ccccc2CN(C)C)nc1N(C)C,-3,0.46
O=C(c1ccc[n+]([O-])c1)N1CCO[C@@H](CC(c2ccccc2)c2ccccc2)C1,-8,1.02
COCC(=O)NC1CN(S(=O)(=O)C2C[C@@H]3CC[C@H]2C3)C1 (stereo not given in full),-4,0.55
COc1ccc(CCNC(=O)CS(=O)(=O)c2ccc(Cl)cc2)cc1OC,3,-0.51

SMILES,% Inhibition [%],Z score
Cc1cc(NC(=O)[C@@H]2CCn3c(C(=O)c4ccccc4)ccc32)ccc1Br,29,-3.3
COCCc1noc(CCc2scnc2C)n1,-5,0.66
Cc1c(CNC2CCC(C)CC2)c(C(=O)O)c(C)n1Cc1ccccc1Cl (stereo not given),-4,0.51
C#CCN(CC)C(=O)c1ncoc1C(C)C,-39,4.58
Cc1nc(C)c(Cc2ccc(Cl)cc2)c(N2CCN(S(=O)(=O)c3ccc(Cl)cc3)CC2)n1,-9,1.23
CCCCN(C)c1ccc(S(C)(=O)=O)cc1S(=O)(=O)N(C)C,13,-1.82
O=C(CCc1cc(Br)ccc1OC(F)F)N1CC[C@H](N2C(=O)CNC2=O)C1,-2,0.38
CC(=O)N1CC(c2nc(CCOc3cccc(C)c3)no2)C1,-5,0.67
Cn1cc(CN2CC[C@]3(CNC(=O)C3)C2)c(C(F)F)n1,-8,1.09
O=C(NCCc1ccc2c(c1)OCCO2)NCCc1c[nH]c2ccccc12,-9,1.4
Cc1ccc(S(=O)(=O)N2CCN(C(=O)COc3ccccc3)[C@@H]2c2ccccc2)cc1,-4,0.45
O=C(Nc1cccc(N2CCCC2=O)c1)c1ccc(-n2cnnn2)cc1,-19,2.52
O=S(=O)(c1ccc2c(c1)CCC2)N1CCC[C@H](CCc2noc(-c3ccccn3)n2)C1,2,-0.37
CC1(C)c2[nH]c3ccccc3c2C[C@H]2C(=O)N(Cc3ccncc3)CC(=O)N21,-9,1.22
Cc1ccc2nc(CN3CCN(c4ncc[nH]c4=O)CC3)cn2c1,-5,1.05
COCC(C)(C)C(=O)Nc1ncccc1O,-12,1.65
FC(F)(F)Oc1ccc(Cn2ccnc2-c2cccnc2)cc1,0,0.04
O=C(NS(=O)(=O)C[C@H]1CCOC1)c1cc(C2CCCCC2)n[nH]1,-5,0.68
O=C(Nc1ccc(Oc2ccccc2)cc1)C1CCN(S(=O)(=O)Cc2ccccc2Cl)CC1,-6,1.19
